Over roughly 33,000 sequences, “E-score (-0.5 to 0.5)” has its median near -0.043; the highest 2% begin near 0.37. Some of the results follow.
target: T1, Upc2 (UniProt Q12151); assay: PBM E-score (8-mer binding enrichment) (E-score (-0.5 to 0.5)); higher = stronger / more preferred TF binding; most listed sequences are background and not binding sites; conditions: protein concentration: 200 nM; construct: GST-full length
T1 sequence: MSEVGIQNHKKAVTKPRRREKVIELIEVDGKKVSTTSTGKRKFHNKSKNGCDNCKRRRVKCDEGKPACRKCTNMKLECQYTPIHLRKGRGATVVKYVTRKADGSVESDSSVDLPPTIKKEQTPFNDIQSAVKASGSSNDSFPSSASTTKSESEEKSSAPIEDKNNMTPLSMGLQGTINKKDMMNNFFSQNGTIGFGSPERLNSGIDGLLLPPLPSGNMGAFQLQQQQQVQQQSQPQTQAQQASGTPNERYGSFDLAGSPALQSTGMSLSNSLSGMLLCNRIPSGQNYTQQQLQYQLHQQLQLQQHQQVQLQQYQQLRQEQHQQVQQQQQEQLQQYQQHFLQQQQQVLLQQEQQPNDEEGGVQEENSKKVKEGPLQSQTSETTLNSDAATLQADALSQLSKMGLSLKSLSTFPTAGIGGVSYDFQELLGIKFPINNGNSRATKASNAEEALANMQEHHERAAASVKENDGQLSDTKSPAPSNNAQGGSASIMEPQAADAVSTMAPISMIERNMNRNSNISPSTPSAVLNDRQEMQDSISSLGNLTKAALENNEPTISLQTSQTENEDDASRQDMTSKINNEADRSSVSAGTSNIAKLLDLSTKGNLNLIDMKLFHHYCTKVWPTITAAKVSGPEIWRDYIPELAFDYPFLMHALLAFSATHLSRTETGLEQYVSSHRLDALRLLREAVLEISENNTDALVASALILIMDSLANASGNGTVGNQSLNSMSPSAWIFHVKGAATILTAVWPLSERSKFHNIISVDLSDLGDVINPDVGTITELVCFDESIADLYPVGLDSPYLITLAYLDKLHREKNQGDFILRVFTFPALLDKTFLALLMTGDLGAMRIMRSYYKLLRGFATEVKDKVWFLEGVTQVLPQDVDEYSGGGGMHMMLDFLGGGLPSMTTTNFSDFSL
Protocol: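 Universal 'all 10-mer' protein binding microarrays (Agilent AMADID 015681) probed with GST-tagged S. cerevisiae TFs (full-length or DBD) made by in vitro transcription/translation (PURExpress), about 100-200 nM. Bound TF was detected with fluorescent anti-GST. Each ungapped 8-mer (which stands for itself and its reverse complement) is scored by the PBM enrichment score (E-score), a modified Wilcoxon-Mann-Whitney statistic from -0.5 to +0.5, computed with the Universal PBM Analysis Suite. Scale: above 0.35 generally sequence-specific binding.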

Sequence | PBM E-score
GGTGAGAC | -0.278
GAATTTGC | -0.0648
CTTGAAGC | -0.183
GAACTCAC | -0.0682
ATAGGCGC | 0.0366
GGTGGGTA | -0.0374
CGCGACCA | 0.116
CACGATTA | 0.0433
ATCCTTCG | 0.186
GATGGCAC | -0.112
AGTCTGAC | -0.161
AAAACTGA | -0.0868
ATTGCGGA | -0.141
CCGCAAGG | 0.0456
CTAACGCA | -0.0276
GAGTCCAC | -0.145
ACTCGAAT | 0.0455
CGTAGCGA | 0.331
AGATTATA | -0.00741
ATTCTCCG | -0.0376
AAACACGA | 0.0726
CACACGAG | 0.155
ATTTTGTA | 0.0656
TCAGCGAA | 0.0363
CAGCTTCA | -0.051

Sequence | PBM E-score
GCGCTACC | 0.033
AAGAAGCA | -0.101
TTATCAAA | 0.074
TATGAACA | 0.00395
GCGAGGCA | 0.195
AAGACGCT | -0.145
ATTTAATA | 0.0458
AAATGGAA | -0.177
GTGAGGTA | -0.251
CAGCCACC | -0.259
AGTAATAT | 0.141
CTCAGACC | -0.226
CACAAAAG | -0.0256
CAGGGCTC | -0.149
CGAGAAAA | 0.106
CTAATCGC | 0.0123
CTGCAATC | -0.03
TAAGATGA | -0.0958
ATCCGTAG | -0.00695
GACAATAC | 0.132
CCTCGACA | -0.127
CTGTCAGA | -0.0794
CTACAGTA | -0.16
GGAAATAC | 0.126
AGCGTTAC | 0.0438

Sequence | PBM E-score
ATGGAGAA | -0.12
AGTCCGAC | -0.177
AGAACGGA | 0.0565
ATATAGAC | -0.0241
CACCGTAA | 0.32
CCCCAGAC | -0.232
ACGCAACG | 0.151
AAAACTCG | 0.16
TCACTGAA | 0.0417
CATCTCTC | -0.069
AGTCGTTC | 0.41
AGATGGAT | -0.281
ACTCAAAA | 0.029
CACCTCGA | 0.135
CCCAGGTC | -0.135
ATTCTTAC | -0.0183
CCTGCGCC | -0.238
ATTAGAGG | -0.284
AGACATCA | -0.192
CAGGGTTA | -0.0995
ACTGTCAC | -0.115
AGGTGTTA | -0.101
CGACGTCC | 0.13
ACAATAAA | 0.0542
CCCGTTAA | 0.322

Sequence | PBM E-score
GCTCGAGA | -0.135
ACGACGCT | 0.361
ATAGCTAC | -0.0117
AACATTGG | -0.329
GCCGTTGA | -0.102
GCTTATGA | 0.0621
GTTGTACA | 0.0854
GGCCATGA | -0.134
AAGGGTCG | 0.126
GTAGTGAC | -0.17
CGCATCCA | 0.0543
AGGCATTA | -0.165
CATCGACG | -0.193
GGCTGTAA | -0.0429
CGGGGTCC | -0.0957
AGATCTCA | 0.0408
GCTCGATA | -0.0813
GAGAACGA | 0.36
AAACAACA | -0.0144
CGATTATC | 0.0988
ACGCCACC | -0.058
ATAATTTG | 0.0757
TCTGAAGA | -0.197
TCTCTGCA | -0.139
CCACATCG | 0.0288

Sequence | PBM E-score
CGGGGATA | -0.039
AAGTTGTA | 0.123
ACACGGCC | -0.126
CCAACCAA | -0.131
CGCTGAGC | 0.00368
CCTACGAC | 0.232
TCGTAAAA | 0.481
CTATGGCA | -0.119
TCATGCCA | 0.0205
CAGCCCTC | -0.0814
AGGCGGTG | -0.0842
ACTAGCCG | -0.143
CCTCTGCA | -0.234
TCTTTTAA | 0.264
CTCTCCAA | -0.0403
ATGGCACA | -0.132
CCGTTGAG | -0.109
AGTTGGGC | -0.0112
GGTTTTTA | -0.072
GACCGAAA | 0.0604
CCGCGGGA | -0.164
ACCGTAAG | 0.185
AAGTCTCG | 0.141
CAAAAGTA | 0.0952
ACTAACTA | -0.0101

Sequence | PBM E-score
CCGGAGGA | -0.267
ATGGGCTA | -0.00473
AGGGGAAG | -0.0649
CCTGTGTC | -0.0613
CGTAGTAC | 0.197
GATCGGGA | -0.107
CTAAATAG | -0.181
AGTCAATG | -0.127
AAAGGGGT | -0.194
CCTACTTC | -0.114
ATATACAC | 0.193
AACAACGG | -0.0411
CCGCTCAA | -0.155
GCCTCCGA | -0.185
ATCAGCGC | -0.0538
AGACACTG | -0.0695
CTGCATCA | -0.166
GGAGGAAC | 0.0433
CGGTCAAA | 0.169
ATAAGGCG | 0.114
AGCTCAAA | 0.117
CGACGTGA | 0.151
ATCTCAAG | -0.196
AGGCTTGA | -0.192
CAAGACTC | -0.0211

Sequence | PBM E-score
CCGGTCAA | -0.0371
CGGCACCC | -0.202
CATCGCGA | 0.152
CCAGTTCA | -0.172
GAGGATAC | 0.14
CCTCAGTA | -0.0614
AATCATTA | -0.00862
CAGGTGGC | -0.221
ATAGTTGC | -0.107
ACTTGAAT | -0.047
ACCAGCCG | -0.104
CGTAGTCA | 0.0064
TACAGAAA | 0.0627
CGACCTCC | 0.175
ATGCAGAG | -0.261
ATGGCGAA | -0.0883
GACAACTC | -0.0153
ACCCCCTC | -0.368
CCATGGTC | -0.202
AAAAACAA | 0.0562
CGTCCTCA | -0.0832
GGCTGAGA | -0.243

Source: the supplement of paper PMC3334620
